The values below come from the supplement of paper PMC4967469.

Compound in the assay: C=CC(=O)Nc1cccc(Nc2nc(NC3CCC(N(C)C)CC3)nc3c2ncn3C(C)C)c1 [WZ3105]
Put plainly: Viability of human cancer cell lines after 72 h of drug (GDSC screen). Particulars: top dose inferred. As to the method: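 Human cancer cell lines in 384-well plates, medium with 10% serum, drug for 72 h over a 256-fold dose range (nine 2-fold or five 4-fold steps up to the top dose). Adherent lines were fixed and stained with the nucleic acid dye Syto60, suspension lines read with resazurin; signal relative to control wells, capped at 0 and 100%. One two-parameter sigmoid per drug and line, fitted in a mixed model over all curves with the slope shared within a line.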

Lines with a small IC50 respond at low doses; where the fit passes the top or lowest dose, that dose stands as a limit. The AUC spans the tested range (256-fold, ending at the top dose) of the same fit; the more sensitive the line, the further below 1. Where the top dose is marked as inferred, it is not printed in the source and was worked back from the curve model.

On to “EW-11 (Ewing sarcoma, adherent, top dose 1.28 µM)”, for which the AUC turned out to be 0.574 and the half-inhibitory concentration (IC50) (commonly the point on the concentration scale where inhibition reaches its midpoint) turned out to be 136 nM.

With “EW-13 (Ewing sarcoma, suspension, top dose 1.28 µM)”, the AUC amounted to 0.839 and the IC50 was found to be 1020 nM.

As for “EW-16 (Ewing sarcoma, adherent, top dose 1.28 µM)”, the AUC was 0.678 and the IC50 worked out at 258 nM.

Regarding “EW-18 (Ewing sarcoma, suspension, top dose 1.28 µM)”, the AUC is 0.459 and the IC50 turned out to be 61.2 nM.

“EW-24 (Ewing sarcoma, semi-adherent, top dose 1.28 µM)”: the AUC is 0.977 and the IC50 is more than 1280 nM.

In the case of “EoL-1-cell (haematopoietic neoplasm, suspension, top dose 1.28 µM)”, the AUC amounted to 0.691 and the half-inhibitory concentration (IC50) is 255 nM.

With “FADU (head and neck, adherent, top dose 1.28 µM)”, the AUC amounted to 0.937 and the IC50 is more than 1280 nM.

On to “FLO-1 (oesophagus, adherent, top dose 1.28 µM)”, for which the AUC was 0.624 and the IC50 was found to be 204 nM.

For “FTC-133 (thyroid, adherent, top dose 1.28 µM)”, the AUC stood at 0.983 and the IC50 is more than 1280 nM.

Turning to “FU97 (stomach, adherent, top dose 1.28 µM)”, the AUC turned out to be 0.89 and the IC50 was more than 1280 nM.

As for “FU-OV-1 (ovary, adherent, top dose 1.28 µM)”, the AUC is 0.899 and the IC50 is more than 1280 nM.

On to “Farage (B-cell lymphoma, suspension, top dose 1.28 µM)”, for which the AUC stood at 0.6 and the IC50 worked out at 143 nM.

Consider “G-292 Clone A141B1 (osteosarcoma, adherent, top dose 1.28 µM)”, for which the AUC was found to be 0.882 and the IC50 was more than 1280 nM.

With “G-361 (melanoma, adherent, top dose 1.28 µM)”, the AUC stood at 0.803 and the IC50 came out at 606 nM.

On to “G-401 (kidney, adherent, top dose 1.28 µM)”, for which the AUC amounted to 0.935 and the IC50 is more than 1280 nM.

As to “G-402 (soft tissue, adherent, top dose 1.28 µM)”, the AUC is 0.799 and the IC50 came out at 869 nM.

On to “G-MEL (melanoma, adherent, top dose 1.28 µM)”, for which the AUC was 0.889 and the IC50 was more than 1280 nM.

With “GAK (melanoma, adherent, top dose 1.28 µM)”, the AUC came to 0.985 and the 50% inhibitory concentration (IC50) is more than 1280 nM.

As to “GAMG (glioma, adherent, top dose 1.28 µM)”, the AUC was 0.731 and the IC50 turned out to be 377 nM.

For the cell line “GB-1 (glioma, adherent, top dose 1.28 µM)”, the AUC amounted to 0.963 and the IC50 is more than 1280 nM.

As to “GCIY (stomach, adherent, top dose 1.28 µM)”, the AUC was determined as 0.975 and the half-maximal inhibitory concentration (IC50) was more than 1280 nM.

On to “GCT (soft tissue, adherent, top dose 1.28 µM)”, for which the AUC is 0.888 and the IC50 came to 1270 nM.

Consider “GDM-1 (acute myeloid leukaemia, suspension, top dose 1.28 µM)”, for which the AUC came out at 0.686 and the IC50 turned out to be 259 nM.

Take “GI-1 (glioma, adherent, top dose 1.28 µM)”: the AUC was found to be 0.78 and the IC50 was found to be 504 nM.

As to “GI-ME-N (neuroblastoma, adherent, top dose 1.28 µM)”, the AUC stood at 0.572 and the IC50 turned out to be 135 nM.

With “GMS-10 (glioma, adherent, top dose 1.28 µM)”, the AUC worked out at 0.819 and the IC50 is 723 nM.

Consider “GOTO (neuroblastoma, adherent, top dose 1.28 µM)”, for which the AUC is 0.883 and the IC50 is more than 1280 nM.

Take “GP5d (large intestine, adherent, top dose 1.28 µM)”: the AUC amounted to 0.78 and the IC50 stood at 470 nM.

“GR-ST (lymphoblastic leukaemia, suspension, top dose 1.28 µM)”: the AUC was 0.572 and the concentration for half-maximal inhibition (IC50) worked out at 132 nM.

In the case of “GRANTA-519 (B-cell lymphoma, suspension, top dose 1.28 µM)”, the AUC was found to be 0.718 and the half-maximal inhibitory concentration (IC50) was found to be 306 nM.

For “GT3TKB (stomach, adherent, top dose 1.28 µM)”, the AUC was 0.979 and the half-maximal inhibitory concentration (IC50) was more than 1280 nM.

For H4 (glioma, adherent, top dose 1.28 µM), the AUC is 0.978 and the IC50 is more than 1280 nM.

In the case of “H9 (lymphoid neoplasm, suspension, top dose 1.28 µM)”, the AUC worked out at 0.679 and the IC50 is 228 nM.

In the case of “H290 (mesothelioma, adherent, top dose 1.28 µM)”, the AUC amounted to 0.989 and the IC50 is more than 1280 nM.

On to “H513 (mesothelioma, semi-adherent, top dose 1.28 µM)”, for which the AUC turned out to be 0.896 and the IC50 was more than 1280 nM.

For “H2369 (mesothelioma, adherent, top dose 1.28 µM)”, the AUC was determined as 0.976 and the IC50 is more than 1280 nM.

Turning to “H2373 (mesothelioma, adherent, top dose 1.28 µM)”, the AUC stood at 0.761 and the half-inhibitory concentration (IC50) worked out at 564 nM.

On to “H2461 (mesothelioma, adherent, top dose 1.28 µM)”, for which the AUC stood at 0.965 and the IC50 is more than 1280 nM.

Take “H2591 (mesothelioma, adherent, top dose 1.28 µM)”: the AUC was 0.805 and the IC50 was determined as 890 nM.

With “H2595 (mesothelioma, adherent, top dose 1.28 µM)”, the AUC amounted to 0.909 and the IC50 is more than 1280 nM.

Regarding “H2722 (mesothelioma, adherent, top dose 1.28 µM)”, the AUC came to 0.797 and the IC50 worked out at 738 nM.

For “H2731 (mesothelioma, adherent, top dose 1.28 µM)”, the AUC was found to be 0.948 and the IC50 is more than 1280 nM.

As to “H2795 (mesothelioma, adherent, top dose 1.28 µM)”, the AUC came to 0.838 and the IC50 was 849 nM.

In the case of “H2803 (mesothelioma, adherent, top dose 1.28 µM)”, the AUC came out at 0.982 and the IC50 is more than 1280 nM.

On to “H2804 (mesothelioma, adherent, top dose 1.28 µM)”, for which the AUC came to 0.917 and the half-inhibitory concentration (IC50) was more than 1280 nM.

“H2818 (mesothelioma, adherent, top dose 1.28 µM)”: the AUC was 0.988 and the concentration for half-maximal inhibition (IC50) was more than 1280 nM.

Take “H2869 (mesothelioma, adherent, top dose 1.28 µM)”: the AUC came out at 0.69 and the half-maximal inhibitory concentration (IC50) amounted to 313 nM.

Take “H3118 (head and neck, adherent, top dose 1.28 µM)”: the AUC was found to be 0.778 and the IC50 worked out at 566 nM.

Take “H3255 (lung adenocarcinoma, adherent, top dose 1.28 µM)”: the AUC came to 0.795 and the IC50 was determined as 724 nM.

As to “H-EMC-SS (chondrosarcoma, adherent, top dose 1.28 µM)”, the AUC amounted to 0.865 and the IC50 was more than 1280 nM.

On to “HA7-RCC (kidney, adherent, top dose 1.28 µM)”, for which the AUC turned out to be 0.953 and the 50% inhibitory concentration (IC50) was more than 1280 nM.

Turning to “HAL-01 (lymphoblastic leukaemia, suspension, top dose 1.28 µM)”, the AUC came out at 0.989 and the concentration for half-maximal inhibition (IC50) is more than 1280 nM.

On to “HARA (lung squamous cell carcinoma, adherent, top dose 1.28 µM)”, for which the AUC was 0.609 and the IC50 is 168 nM.

For “HC-1 (hairy cell leukaemia, suspension, top dose 1.28 µM)”, the AUC turned out to be 0.523 and the IC50 was determined as 92.1 nM.

On to “HCC38 (breast, adherent, top dose 1.28 µM)”, for which the AUC is 0.73 and the IC50 turned out to be 385 nM.

Regarding “HCC70 (breast, adherent, top dose 1.28 µM)”, the AUC came to 0.491 and the IC50 came out at 75.7 nM.

Turning to “HCC1143 (breast, adherent, top dose 1.28 µM)”, the AUC worked out at 0.657 and the IC50 was 260 nM.

For the cell line “HCC1187 (breast, suspension, top dose 1.28 µM)”, the AUC came to 0.508 and the 50% inhibitory concentration (IC50) is 84.2 nM.

Take “HCC1395 (breast, adherent, top dose 10.24 µM)”: the AUC was 0.886 and the IC50 was more than 10200 nM.

Consider “HCC1419 (breast, adherent, top dose 1.28 µM)”, for which the AUC amounted to 0.789 and the IC50 came out at 851 nM.

Turning to “HCC1428 (breast, adherent, top dose 1.28 µM)”, the AUC worked out at 0.757 and the IC50 is 478 nM.

Take “HCC1500 (breast, adherent, top dose 1.28 µM)”: the AUC is 0.573 and the IC50 came to 127 nM.

Regarding “HCC1569 (breast, adherent, top dose 1.28 µM)”, the AUC was 0.624 and the IC50 stood at 198 nM.

In the case of “HCC1599 (breast, suspension, top dose 10.24 µM)”, the AUC was found to be 0.24 and the half-inhibitory concentration (IC50) turned out to be 100 nM.

Regarding “HCC1806 (breast, adherent, top dose 1.28 µM)”, the AUC came out at 0.635 and the IC50 is 182 nM.

On to “HCC1937 (breast, adherent, top dose 1.28 µM)”, for which the AUC was 0.673 and the IC50 worked out at 263 nM.

With “HCC1954 (breast, adherent, top dose 1.28 µM)”, the AUC turned out to be 0.705 and the IC50 was 337 nM.
